Test results published in the supplement of paper PMC12632987.
Whole data set: some 1,800 sequences, median “median log2 fold change of GCK-ALFA target abundance (FLAG IP / Myc IP barcode read proportion)” near 0.14, cut for the lowest 2% near -0.84. The list shows a part of the results.

T1: TRAF2, Q12933
T1 chain: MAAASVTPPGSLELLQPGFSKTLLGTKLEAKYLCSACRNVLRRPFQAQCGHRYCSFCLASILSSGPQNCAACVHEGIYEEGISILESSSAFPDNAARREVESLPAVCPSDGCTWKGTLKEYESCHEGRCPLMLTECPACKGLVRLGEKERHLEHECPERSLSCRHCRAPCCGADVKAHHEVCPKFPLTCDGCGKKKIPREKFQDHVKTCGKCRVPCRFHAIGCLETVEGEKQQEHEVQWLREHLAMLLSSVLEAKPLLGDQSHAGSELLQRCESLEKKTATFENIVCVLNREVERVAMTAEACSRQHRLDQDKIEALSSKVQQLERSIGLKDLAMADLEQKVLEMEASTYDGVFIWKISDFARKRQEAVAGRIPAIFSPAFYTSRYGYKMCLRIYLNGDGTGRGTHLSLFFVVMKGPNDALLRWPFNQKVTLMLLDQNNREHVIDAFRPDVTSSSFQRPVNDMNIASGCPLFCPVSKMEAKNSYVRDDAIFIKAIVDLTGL

B1: traf2_out_13_95_1120 (protein)
chain: SKEVAEKIMEIADEMEDKRLAILEELLKIAKEKGIAEEEIQAIIDFAKHGTINEVIHRLKELAKKYPELKEEFDKAIAELEEIKREAGRKVAEILKEEKE
B2: traf2_out_11_155_748 (protein)
chain: EERRKLLQEMNDKITELFDKAREEALKIAEEAAKKHPEHAEEIKKKIEETKGFSYRSFILSMIELFEELGLEEEAKKLKELLEKTQKEANKIVQETEKKL
B3: traf2_out_1_27_997 (protein)
chain: SDEELNERLRELDKKIASADEEEALELVREGMRYFIEIGLGDAEIFAIIAVSSVSDEELAERILEVIREVMKEEGVSEEDIERIIKRARNNYERLKKALS
B4: traf2_out_20_3_2150 (protein)
chain: EELKKELEKELKKAEEILKEAAKLADEETAARLKELLERLKASKELSYSDQLVVVSEIRREVLLLAQEAKAAGKEELAKLLEKAAEELNKAANLLMKIIE
B5: traf2_out_18_167_1876 (protein)
chain: SEELKKKLEEASDELVELSTIRRWLRLALEALKESREKALAVLEAALAELPDSEVLREALEVARTKSDEELRRFLEEKIEELQKKANEKYKEYEELRKKL
B6: traf2_out_20_3_2099 (protein)
chain: KELEEEYEKELEKAIKLLEEAAKLADPETAKELEELKKRVEESKELDYTDRLVELSEVKREVLLLAQKAKAEGKEELAKVLEEAADALNKAMNLLYKIIE
B7: traf2_out_15_180_1315 (protein)
chain: MTEEELKKRIELASEVADKIDDKLKELIAANPELTEEEKQALRTAARSLRTLLLNGEEAEAEEALAQAKARLSPKAAAVLEELAAFIRKEVAAMKEKLAA
B8: traf2_out_12_50_983 (protein)
chain: SEEEEEEEEEEEERERILAMADRAEALVDAHRGDPEAAVAAIIERLRSGEISIEEAWIMRSLLARAMRREGLPDERILALHERLEAAILEREEELDELEE
B9: traf2_out_12_187_962 (protein)
chain: SVEEELLEAAKAGVKRALKALEEAAPKDERFKELLKKLKELEKLYEKDPSIASDLLVAASAILRAVRLFEAGLPQAEIDAAIAEAQKILDEALKEAEKRQ
B10: traf2_out_6_3_2505 (protein)
chain: EEEEERRRNEEAFEELAEMSIETLKTALQTELDRLKALVADPNASESDVLAHASAANLLLEVLKKNAEKNPETKEETEKFIKEAEEEREKLMAEWEAKRA
B11: traf2_out_20_3_2126 (protein)
chain: EELEKQLEKELERALKLLKEAAEKSDPETAKRLKELIKRLKESRSLSPSDRLVVVSEVRREVRRLAEEARRRGDEELAKILEEAADELNRAAQLLYEIEK
B12: traf2_out_13_95_1051 (protein)
chain: SKETAEKINEVADEMEDKALELLDKAQKEVADDPEASAVMTEAKRLAEKKGISEAIHLLKEAQKAMPEHKELFEKLIKELEELRREAGRKVAEILKEEKE
B13: traf2_out_3_77_2278 (protein)
chain: AEAEEEARERLDEATTEAIASLFVLAINRPEKAEKYREMAARLHRAANVAKEAGAEEEFLPLVEALLEAAKALNDGDEEAEKKIEELLAEIEARAAALRA
B14: traf2_out_14_17_1294 (protein)
chain: EIIEELKEIEERARELAEKLPELALELGRLLRLARSALVLAEMYEEDPSYKPELIEALNNLEKETKEVAKKVEPISAEAKKELEEMEKRARKILEKVKAE
B15: traf2_out_13_95_1224 (protein)
chain: SAEANEKLRQVSNDMLDKAEAIIDELEAKLAPYPEMAPAMAAIRAALRNNGIRQAIAVLRQAAKEHPEVAADLNAAAEQLEAVRRDAGKKVAEILKEEEE
B16: traf2_out_18_167_1864 (protein)
chain: MEELKKEYEKKTDELVRVSDIRRALREALLALEESREKAKALLEKKLEEHPDSEVLKEALEVAETKSPEEFKAFLEEKIEELQKEANKLYKELEKLKKEM
B17: traf2_out_15_180_1318 (protein)
chain: MTEEELKKRIELANEVSDKVQDKLDALLAANPSLSPEEKAALRALARALTTLYLNGEWAEADAALARAEARLSPEAAAVARELAAFARKVVEEAKKKLAE
B18: traf2_out_20_3_2092 (protein)
chain: EELLKELEKALEEAEKLIKEAIKLADEETAKKLEKLLKRLKEARELPLDEQLVALSEVRRELLELAEKARKEGKEELAKILEEAAEKVNRAMNLAYKIIE
B19: traf2_out_17_162_1624 (protein)
chain: SPLEERLRELERRLEELEKKLEELTKKAENIDKLSKEELTDLLVEASEARREARELAEEIRRLREEENDPRLDELLRRAEELAEEFQRIANLFYNKLLEL
B20: traf2_out_17_178_1731 (protein)
chain: SREEILKKISEKADELLDTNKEAMDELRKIAEKEGVLTPELREKLDAVHRNANLYALEEVFDEVIEKTKSKEEVEKLKEETSKKMRELNKEIQALVEELE
B21: traf2_out_1_27_988 (protein)
chain: SEEEFTALVKEASRKIAEATPEEAIKIAKETLRELHAAGNPDIGLAAVVLVTSVKTREDAEKLIEAIAETLRELGVSEEEIARIRRQMETAVELLFKALE
B22: traf2_out_17_162_1484 (protein)
chain: AALEAELAALEAELAELKKKLEELEEKTKKLEEMSKEELTDLLVEASELRRRALELAERIAALAPLIGEERAGALRDEALAIAERLQRIANKIYKELEKK
B23: traf2_out_18_3_1915 (protein)
chain: SEEERKKISEKIDEIVDEATAKAREALKRGKEKYPEFKAEFERLEADLEAGAGPFGILEALAELFKEAGDEEEAEELEKFLREKRKEFQKLVDEYEKLLK
B24: traf2_out_6_166_2475 (protein)
chain: DEEILERIREVVKEFSKFSPEDIIEAFEILAEERDDERALMARQLASGVRQGQKAGLPVETILSAFADGMLALGVPAEDILELLEEALKIVKEIEKEKKE
B25: traf2_out_17_162_1643 (protein)
chain: GEFEKELKELEEELEELEKRVEELEEKTKTIKSYSKEELSDLIVEASEVKRRALELLQRIEKLKEKLPKEKYEELKERAEEIIRRAQRVANEFYKEREAK
B26: traf2_out_11_131_665 (protein)
chain: MDAVAIAKSVAERVRERLEIAKTLSPEERHRLALRALDSIEAVAEYLTKHVDKMSKEDIEEAVKILRKTVEEIVALDPSVAPEAKEVLKALEKLEKAAKE
B27: traf2_out_3_89_2310 (protein)
chain: GAERERTIEEMRREMERYIRGFRKSAERVAKEMLEDGMSLETLRGVLEAAKSALLEVLRERMRERGLSEEEIEELLEEAGRELDKVVEEVVAEAEERRKA
B28: traf2_out_11_131_663 (protein)
chain: MDAVAIAESVAERVDERLELAKSLSPEERTRLAEQSLDTLEAVAEYLKKHVSEMSKEDIEKAVKILRESAEKILALDPSVAEQVEEVKKALEELLKEAEK
B29: traf2_out_16_104_1393 (protein)
chain: EEERKAEFEAIRKRLEEIAERAGRIANEAYKLYLKASPEKKKELSDLMVEASELRREALLAAQEVEEALRTGGDLEEAKKRLERLEKRLKEIEKKLEELK

Molecular target: T1, TRAF2, Q12933
Experiment: median log2 fold change of GCK-ALFA target abundance (FLAG IP / Myc IP barcode read proportion) (log2 ratio); each designed protein is fused to an ALFA-tag nanobody in HEK293 cells to bring the named protein to FLAG-tagged glucokinase (GCK); Myc marks an untargeted standard; higher = target protein stabilised (more abundant)
Conditions: target protein: 3xFLAG-MCP-GCK-ALFA reporter; HEK293 landing pad (RPLP)
Method in brief: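 Binders fused to an ALFA nanobody were recombined as a library into HEK293 landing-pad cells, which were induced with 2 μg mL^−1 doxycycline and then transfected to express a FLAG-tagged target and a Myc-tagged standard. After 48 h, circular RNA barcodes recovered by anti-FLAG and anti-Myc immunoprecipitation of lysates were reverse transcribed, amplified and sequenced. Each binder's target abundance is the median log2 ratio of FLAG to Myc barcode read proportions, from barcodes present at ≥10^−7 in both replicates, binders carrying ≥3 barcodes per replicate, a 10^−6 pseudocount and pooled replicates.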

Binder | median log2 fold change
B1 | 0.107
B2 | 0.302
B3 | -0.0435
B4 | 0.0615
B5 | -0.674
B6 | 0.0153
B7 | 0.224
B8 | -0.258
B9 | 0.267
B10 | 0.248
B11 | -0.375
B12 | 0.15
B13 | 0.259
B14 | 0.286
B15 | 0.285
B16 | 0.415
B17 | -0.216
B18 | 0.0786
B19 | 0.219
B20 | 0.639
B21 | 0.261
B22 | 0.262
B23 | 0.219
B24 | 0.00718
B25 | 0.249
B26 | 0.0144
B27 | -1.13
B28 | 0.292
B29 | 0.0972
